Laboratory results: the DeepSol protein solubility set

Test: soluble on expression in E. coli; label from the status in PepcDB or PDB records

Sequence | soluble on expression in E. coli
MRIINADGLILGRLASRVAKMLLEGEEVVIVNAEKAVITGNREVIFSKYKQRTGLRTLTNPRRGPFYPKRSDEIVRRTIRGMLPWKTDRGRKAFRRLKVYVGIPKEFQDKQLETIVEAHVSRLSRPKYVTVGEVAKFLGGKF | soluble
AHHHHHHASAKWVCKICGYIYDEDAGDPDNGISPGTKFEELPDDWVCPICGAPKSEFEKLEDGSIRRRKKVRKLRGSHTHGWGCKKKHRGGGSKGGRGMAGTGKRNKSKWTWTIKYAPDHLGKRGFSRPPEVQREVRVVNLKFIDEHLDELMQMGIAYEEGGKIIVDVTQFADKVLGTGKLTRPLVIKARAFSPKAEEKIKAAGGEAVLV | soluble
MSDYFSKLKEHVVESTEINGCTPSIATATFNAPYEVARKTKMLGVTDSSLLNLPAWKRLQSLYEKYGNDSILSHFEKDHQRFQRYSIEIDLHSDDNFLFLDYSKSHINDEIKDALVALAEERGVRAFAKAMFDGQRVNSTENRAVLHVALRNRSNRPIIVDGKDVMSDVNNVLAQMKDFTERVRSGEWKGQTGKSIYNIVNIGIGGSDLGPVMVTEALKPFSKRDLHCFFVSNVDGTHMAEVLKQVNLEETIFIIASKTFTTQETLTNAMSARNALMSYLKENGISTDGAVAKHFVALSTNTEKVREFGIDTVNMFAFWDWVGGRYSVWSAIGLSVMLSIGYDNFVEFLTGAHVMDNHFASTPTEQNLPMMLALVGIWYNNFFGSETQAVLPYDQYLWRLPAYLQQLDMESNGKGVTKKSGAVAVQTGPIVFGEAGTNGQHAFYQLIHQGTKIIPCDFIGCVQTQNRVGDHHRTLMSNFFAQTEALMVGKNAEEVRQELVKSGMSGDAIENMIPHKTFTGSRPSNSILVNALTPRALGAIIAMYEHKVLVQGAIWGINSYDQWGVELGKVLAKSILPQLKSGNIVSDHDGSTNGLINMFNTRAHL | soluble
MKMKTKIFRVKGKFLMGDKLQPFTKELNAIREEEIYERLYSEFGSKHRVPRSKVKIEEIEEISPEEVQDPVVKALVQR | not soluble
